# Reference: the supplement of paper PMC8728848
# Some of the results follow.
# Assays:
# Assay in all cases: glycan array binding signal (z-score within array); higher = stronger binding
# Settings in all cases: glycan notation: IUPAC condensed, linker removed
# [1] = target: Fuc(a1-2)Gal(b1-4)GlcNAc(b1-3)Gal(b1-4)GlcNAc(b1-2)Man(a1-3)[Fuc(a1-2)Gal(b1-4)GlcNAc(b1-3)Gal(b1-4)GlcNAc(b1-2)Man(a1-6)]Man(b1-4)GlcNAc(b1-4)GlcNAc
# How it was run: (§1)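 Columns mapping to the same glycan were averaged after glycan names were converted to IUPAC-condensed notation. The data come from 3228 arrays in the Consortium for Functional Glycomics database, limited to those with an available protein sequence. Binding is reported as a within-array Z-score averaged across arrays of one protein sequence and across linkers.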
# [2] = target: Fuc(a1-2)Gal(b1-4)GlcNAc(b1-3)Gal(b1-4)GlcNAc(b1-3)Gal(b1-4)GlcNAc
# How it was run: as §1
# [3] = target: Fuc(a1-2)Gal(b1-4)GlcNAc(b1-3)GalNAc
# How it was run: as §1
# [4] = target: Fuc(a1-2)Gal(b1-4)GlcNAc(b1-3)[Fuc(a1-2)Gal(b1-4)GlcNAc(b1-6)]GalNAc
# How it was run: as §1
# [5] = target: Fuc(a1-2)Gal(b1-4)GlcNAc(b1-3)[Fuc(a1-3)[Gal(b1-4)]GlcNAc(b1-6)]Gal(b1-4)Glc
# How it was run: as §1
# [6] = target: Fuc(a1-2)Gal(b1-4)GlcNAc(b1-6)GalNAc
# How it was run: as §1
# [7] = target: Fuc(a1-2)Gal(b1-4)GlcNAc6S
# How it was run: as §1
# [8] = target: Fuc(a1-2)Gal(b1-4)[Fuc(a1-3)]GlcNAc
# How it was run: as §1
# [9] = target: Fuc(a1-2)Gal(b1-4)[Fuc(a1-3)]GlcNAc(b1-2)Man(a1-3)[Fuc(a1-2)Gal(b1-4)[Fuc(a1-3)]GlcNAc(b1-2)Man(a1-6)]Man(b1-4)GlcNAc(b1-4)[Fuc(a1-6)]GlcNAc
# How it was run: as §1
# [10] = target: Fuc(a1-2)Gal(b1-4)[Fuc(a1-3)]GlcNAc(b1-2)[Fuc(a1-2)Gal(b1-4)[Fuc(a1-3)]GlcNAc(b1-4)]Man(a1-3)[Fuc(a1-2)Gal(b1-4)[Fuc(a1-3)]GlcNAc(b1-2)Man(a1-6)]Man(b1-4)GlcNAc(b1-4)GlcNAc
# How it was run: as §1
# [11] = target: Fuc(a1-2)Gal(b1-4)[Fuc(a1-3)]GlcNAc(b1-3)Gal(b1-4)[Fuc(a1-3)]GlcNAc
# How it was run: as §1
# [12] = target: Fuc(a1-2)Gal(b1-4)[Fuc(a1-3)]GlcNAc(b1-3)Gal(b1-4)[Fuc(a1-3)]GlcNAc(b1-3)Gal(b1-4)[Fuc(a1-3)]GlcNAc
# How it was run: as §1
# [13] = target: Fuc(a1-2)Gal(b1-4)[Fuc(a1-3)]GlcNAc(b1-3)GalNAc
# How it was run: as §1
# [14] = target: Fuc(a1-2)Gal(b1-4)[Fuc(a1-3)]GlcNAc(b1-3)[Neu5Ac(a2-6)Gal(b1-4)GlcNAc(b1-6)]Gal(b1-4)Glc
# How it was run: as §1
# [15] = target: Fuc(a1-2)Gal3S(b1-4)GlcNAc
# How it was run: as §1
# [16] = target: Fuc(a1-2)Gal6S(b1-3)GlcNAc
# How it was run: as §1
# [17] = target: Fuc(a1-2)Gal6S(b1-3)GlcNAc6S
# How it was run: as §1
# Fuc(a1-2)Gal6S(b1-4)Glc = target: Fuc(a1-2)Gal6S(b1-4)Glc
# How it was run: as §1
# [18] = target: Fuc(a1-2)Gal6S(b1-4)Glc6S
# How it was run: as §1
# Fuc(a1-2)[Gal(a1-3)]Gal = target: Fuc(a1-2)[Gal(a1-3)]Gal
# How it was run: as §1
# [19] = target: Fuc(a1-2)[Gal(a1-3)]Gal(b1-3)GalNAc
# How it was run: as §1
# [20] = target: Fuc(a1-2)[Gal(a1-3)]Gal(b1-3)GalNAc(b1-3)Gal(a1-4)Gal(b1-4)Glc
# How it was run: as §1
# [21] = target: Fuc(a1-2)[Gal(a1-3)]Gal(b1-3)GlcNAc
# How it was run: as §1
# [22] = target: Fuc(a1-2)[Gal(a1-3)]Gal(b1-3)GlcNAc(b1-2)Man(a1-3)[Fuc(a1-2)[Gal(a1-3)]Gal(b1-3)GlcNAc(b1-2)Man(a1-6)]Man(b1-4)GlcNAc(b1-4)GlcNAc
# How it was run: as §1
# [23] = target: Fuc(a1-2)[Gal(a1-3)]Gal(b1-3)GlcNAc(b1-2)Man(a1-3)[Fuc(a1-2)[Gal(a1-3)]Gal(b1-3)GlcNAc(b1-2)Man(a1-6)]Man(b1-4)GlcNAc(b1-4)[Fuc(a1-6)]GlcNAc
# How it was run: as §1
# [24] = target: Fuc(a1-2)[Gal(a1-3)]Gal(b1-3)GlcNAc(b1-3)GalNAc
# How it was run: as §1
# [25] = target: Fuc(a1-2)[Gal(a1-3)]Gal(b1-3)GlcNAc(b1-6)GalNAc
# How it was run: as §1
# [26] = target: Fuc(a1-2)[Gal(a1-3)]Gal(b1-4)Glc
# How it was run: as §1
# [27] = target: Fuc(a1-2)[Gal(a1-3)]Gal(b1-4)GlcNAc
# How it was run: as §1
# [28] = target: Fuc(a1-2)[Gal(a1-3)]Gal(b1-4)GlcNAc(b1-2)Man
# How it was run: as §1
binder,measurement,setting,value
"CBM13 2a (Mycobacterium tuberculosum), P64849 (protein) DGPVQLKSRLGDVCLDAPSGSWFSPLVINPCNGTDFQRWNLTDDRQVESVAFPGECVNIGNALWARLQPCVNWISQHWTVQPDGLVKSDLDACLTVLGGPDPGTWVSTRWCDPNAPDQQWDSVPLEHHHHHH",glycan array binding signal (z-score),[1],-0.177
same,glycan array binding signal (z-score),[2],-0.322
same,glycan array binding signal (z-score),[3],-0.25
same,glycan array binding signal (z-score),[4],-0.061
same,glycan array binding signal (z-score),[5],-0.206
same,glycan array binding signal (z-score),[6],-0.181
same,glycan array binding signal (z-score),[7],-0.257
same,glycan array binding signal (z-score),[8],-0.253
same,glycan array binding signal (z-score),[9],0.006
same,glycan array binding signal (z-score),[10],-0.215
same,glycan array binding signal (z-score),[11],-0.108
same,glycan array binding signal (z-score),[12],-0.112
same,glycan array binding signal (z-score),[13],0.032
same,glycan array binding signal (z-score),[14],-0.018
same,glycan array binding signal (z-score),[15],-0.228
same,glycan array binding signal (z-score),[16],-0.322
same,glycan array binding signal (z-score),[17],1.06
same,glycan array binding signal (z-score),Fuc(a1-2)Gal6S(b1-4)Glc,-0.248
same,glycan array binding signal (z-score),[18],-0.174
same,glycan array binding signal (z-score),Fuc(a1-2)[Gal(a1-3)]Gal,-0.26
same,glycan array binding signal (z-score),[19],-0.268
same,glycan array binding signal (z-score),[20],-0.311
same,glycan array binding signal (z-score),[21],0.37
same,glycan array binding signal (z-score),[22],-0.307
same,glycan array binding signal (z-score),[23],-0.196
same,glycan array binding signal (z-score),[24],-0.142
same,glycan array binding signal (z-score),[25],-0.198
same,glycan array binding signal (z-score),[26],-0.34
same,glycan array binding signal (z-score),[27],-0.021
same,glycan array binding signal (z-score),[28],-0.294
